# PubChem BioAssay AID596 (National Center for Advancing Translational Sciences (NCATS), 2007)
# Screen size: about 71,000 compounds; about 1,400 (2%) were called active. The shares of active, inactive and inconclusive entries below differ from those in the screen. Calls come from the whole dose curve; as a rule, active = well fitted curve in the direction sought with a large enough effect; inconclusive = small, poorly fitted or top-dose-only effect; inactive = no such curve, though single readings can be large or run the other way. Potencies beside an inconclusive call are fits to weak or partial responses and may not hold up. Some compounds were tested as several samples or in several runs, with calls that do not always agree. Residues, ends and D or L forms follow the SMILES beside them.
# Biological target: Microtubule-associated protein tau (Homo sapiens) (UniProt P10636)
# UniProt P10636, sequence (P10636 whole entry, looked up): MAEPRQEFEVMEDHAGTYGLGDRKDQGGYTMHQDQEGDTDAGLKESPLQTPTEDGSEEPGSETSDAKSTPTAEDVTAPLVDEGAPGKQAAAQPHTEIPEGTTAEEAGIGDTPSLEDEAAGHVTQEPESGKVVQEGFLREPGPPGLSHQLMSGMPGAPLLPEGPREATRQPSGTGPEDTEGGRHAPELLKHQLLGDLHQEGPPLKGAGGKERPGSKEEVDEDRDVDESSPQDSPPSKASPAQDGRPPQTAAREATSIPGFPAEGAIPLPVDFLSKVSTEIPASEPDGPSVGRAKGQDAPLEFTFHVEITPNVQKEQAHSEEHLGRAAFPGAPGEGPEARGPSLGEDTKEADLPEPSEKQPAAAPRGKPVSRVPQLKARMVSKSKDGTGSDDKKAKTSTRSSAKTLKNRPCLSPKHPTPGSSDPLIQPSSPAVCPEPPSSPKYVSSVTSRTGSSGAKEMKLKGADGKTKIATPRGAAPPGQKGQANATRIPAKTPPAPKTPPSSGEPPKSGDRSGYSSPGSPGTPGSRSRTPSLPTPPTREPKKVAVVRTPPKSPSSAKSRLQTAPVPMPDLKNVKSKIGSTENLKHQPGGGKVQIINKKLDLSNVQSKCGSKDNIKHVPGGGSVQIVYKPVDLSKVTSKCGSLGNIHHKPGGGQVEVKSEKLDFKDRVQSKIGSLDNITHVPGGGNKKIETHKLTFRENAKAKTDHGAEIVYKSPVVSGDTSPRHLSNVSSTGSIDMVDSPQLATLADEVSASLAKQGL
# Test: qHTS Assay for Tau Filament Binding;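 note: actives lower thioflavin S fluorescence by blocking filaments or displacing dye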
# Conditions: recombinant tau filaments, thioflavin S fluorescence, 15 h, filaments grown with octadecylsulfate alongside compound; series mostly up to 57.1 µM
# Method in brief: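 His-tagged recombinant human tau (exons 2, 3, 10; 1 uM final) fibrillized with 30 uM sodium octadecylsulfate, 15 h at 37 C, in pH 7.4 HEPES buffer with 10 uM thioflavine S and 5 mM DTT. Reduced ThS fluorescence (450/510 nm) marks activity.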
# % is set by controls: 0 for no effect and ±100 for the full control effect; potency is the fitted concentration of half-maximal effect.
Compound,Potency,"activity change, negative = inhibition"
CCOc1ccc(OCC)c(NC(=O)CN(C)S(=O)(=O)c2cccc3nsnc23)c1,inconclusive: 20 µM [decreasing],
COc1ccc(-c2cc(C(F)(F)F)n3nc(C(=O)NCc4ccco4)cc3n2)cc1,inconclusive: 5.01 µM [decreasing],
CC[N+](C)(CC)CC(=O)Nc1c(C)cccc1C,inconclusive: 39.8 µM [decreasing],
C=CCn1c(N2CCCCCC2)nc2c1c(=O)[nH]c(=O)n2C,inactive,
CC(=O)Nc1ccc(Cc2ccc3[nH]c(=O)cc(C)c3c2)cc1,,inactive: 14.9% [at 11.4 µM]
CCOC(=O)CC(=O)CSc1nc2ccc(C)cc2cc1C#N,inconclusive: 31.6 µM [decreasing],
CCOC(=O)C1=C(C)Nc2ncnn2C1c1ccc2c(c1)OCO2 (stereo unspecified),inactive,
CC(C)Cn1c(-c2cccs2)nc2nc3ccccc3nc21,inconclusive: 31.6 µM [decreasing],
CS(=O)(=O)Nc1cccc(C(=O)CC2(O)C(=O)Nc3ccc(Br)cc32)c1 (stereo unspecified),inconclusive: 31.6 µM [decreasing],
C[C@]12CC3CC(N)(C1)C[C@@](C)(C3)C2,inconclusive: 39.8 µM [decreasing],
COc1ccc(-c2cn3c(C)c(C(=O)Nc4cccc(NC(C)=O)c4)sc3n2)cc1,inactive,
CCCCCCCCCCCCCCC[C@@H](O)[C@@H](N)CO,inconclusive: 25.1 µM [decreasing],
CC(=O)OCCNc1cc(N2CCN(C)CC2)c2noc3c2c1C(=O)c1ccccc1-3,active: 3.16 µM,
COc1ccccc1NC=C1C(=O)OC(C)(C)OC1=O,inactive,
Fc1ccc(Nc2ccnc(-c3ccoc3)n2)cc1,active: 12.6 µM,
COc1ccc(C(c2nnnn2CC2CCCO2)N2CCN(c3cccc(C)c3C)CC2)cc1 (stereo unspecified),inactive,
O=C(NCCN1CCN(c2ccccc2)CC1)c1cccn2c(=O)c3cc(Cl)ccc3nc12,active: 15.8 µM,
Cc1cc(C(=O)CSc2nnnn2-c2ccc(O)cc2)c(C)n1Cc1ccc2c(c1)OCO2,inactive,
CC(C)C(NC(=O)c1ccccc1NC(=O)c1ccco1)C(=O)O (stereo unspecified),inactive,
COc1ccc(CCn2c(-c3ccco3)nc3nc4ccccc4nc32)cc1OC,inconclusive: 10 µM [decreasing],
COc1ccc(-c2noc(N3CCC(C(=O)N4CCN(c5ccccn5)CC4)CC3)n2)cc1,inactive,

Compound,Potency,"activity change, negative = inhibition"
COc1ccccc1CNc1nc(-c2ccc(C(=O)N(C)C)cc2)nc2ccccc12,inactive,
COc1ccc(CNC(=O)c2cc3c(=O)n4ccccc4nc3n(CC3CCCO3)c2=N)cc1 (stereo unspecified),active: 2.51 µM,
CSC1=C(C#N)C2(CCCC2)C(C#N)=C(N)N1,inactive,
CCNc1ncc2nc(CCc3ccccc3)c(=O)n(Cc3cccc(OC)c3)c2n1,inactive,
CCc1ccc(CNc2ccc(O)cc2)cc1,active: 10 µM,
CN(C)CCN1C(=O)c2oc3ccccc3c(=O)c2C1c1cccc(Br)c1 (stereo unspecified),inconclusive: 25.1 µM [decreasing],
OC[C@@H]1O[C@@H](n2cnc3c(NC4CCCC4)ncnc32)[C@H](O)[C@H]1O,inconclusive: 39.8 µM [decreasing],
Cn1cccc1C(=O)N1CCC2(CCCN(Cc3ccc(C#N)cc3)C2)CC1,inactive,
CCOC(=O)c1sc(NC(C)=O)c(C(=O)OCC)c1C,inactive,
Cc1cccc(N(CC(=O)NCc2ccccc2)C(=O)Cn2nnc(-c3ccc(C)o3)n2)c1,inactive,
COc1ccc(O)c(C(=O)c2cnc3onc(C)c3c2)c1,inconclusive: 31.6 µM [decreasing],
CC(C)(C)N1C(=O)Cc2c1nc(N)c1c(N)nc(N3CCCCC3CO)c(C#N)c21 (stereo unspecified),active: 7.94 µM,
Cc1nc(C)c(C(=O)Nc2ccccc2-c2ccccc2)o1,inconclusive: 25.1 µM [decreasing],
COc1ccccc1C(=O)OCn1nnc2ccccc2c1=O,inconclusive: 20 µM [decreasing],
COc1ccc2c(c1)N(CC[C@H]1CCCCN1C)c1ccccc1S2,active: 2.51 µM,
CC(C)NC[C@@H](O)COc1cccc2[nH]ccc12,inconclusive: 39.8 µM [decreasing],
N#Cc1ccsc1NC(=O)CSc1ncnc2ccccc12,active: 20 µM,
CCOC(=O)c1ccc2c(c1)C1C=CCC1C(C(=O)O)N2 (stereo unspecified),inconclusive: 3.98 µM [decreasing],
N#CCCn1c(=O)c(-c2cc(F)cc(F)c2)nc2cnc(OCc3ccccc3)nc21,inconclusive: 5.01 µM [decreasing],
O=C(Nc1ccccn1)c1cccc(S(=O)(=O)N2CCOCC2)c1,inactive,
CCOC(=O)CNc1nc(C#N)nc(N2CCOCC2)n1,inconclusive: 5.01 µM [decreasing],

Compound,Potency,"activity change, negative = inhibition"
CC(C)C[C@@H](CC(=O)N[C@@H](CCC(=O)O)CC(=O)O)NC(=O)[C@@H]1CNCC[C@H]1NC(=O)C[C@@H](NC(=O)C[C@H](Cc1ccccc1)NC(=O)[C@@H]1CNCC[C@H]1N)C(C)C,inactive,
COc1nc(Nc2cccc(C)c2)nc(N2CCCCC2)n1,inactive,
CCOC(=O)c1c(-c2ccccc2)csc1NC(=O)c1nn(CC)cc1Br,inactive,
CNCC[C@H](Oc1ccc(C(F)(F)F)cc1)c1ccccc1,inconclusive: 39.8 µM [decreasing],
Oc1c(CN2CCc3ccccc3C2)cc(Cl)c2cccnc12,inactive,
CC(=O)Nc1nc(-c2ccccc2)nc(-c2ccccc2OC(C)=O)n1,active: 1.26 µM,
O=C(COc1ccc(Cl)cc1)Nc1ccc2oc(-c3ccncc3)nc2c1,inconclusive: 3.98 µM [decreasing],
O=c1cc(-c2ccccc2O)oc2cc(O)cc(O)c12,inconclusive: 39.8 µM [decreasing],
O=C(O)COc1cccc(-c2ocnc2-c2nc(-c3ccccc3)c(-c3ccccc3)o2)c1,inconclusive: 39.8 µM [decreasing],
Cn1cc(C(=O)OCC2CCN(CCNS(C)(=O)=O)CC2)c2ccccc21,inconclusive: 39.8 µM [decreasing],
Cn1cccc1-c1nc2ccc(NC(=O)c3cccs3)cc2[nH]1,inconclusive: 25.1 µM [decreasing],
Nc1c(C(=O)OCC2CCCO2)c2nc3ccccc3nc2n1C1CCCCC1 (stereo unspecified),inconclusive: 5.01 µM [decreasing],
C[C@@H]1CCCN(CP(=O)(c2ccccc2)c2ccccc2)C1,,inactive: 1.5% [at 11.4 µM]
COc1ccc(CCNC(=O)c2ccc3c(=O)n(Cc4ccco4)c(=S)[nH]c3c2)cc1OC,inconclusive: 25.1 µM [decreasing],
O=C(c1csnn1)N1CCC2(CC1)CCN(c1cccc(-c3ccccc3)c1)CC2,inconclusive: 12.6 µM [decreasing],
CC(C)c1ccc(NC(=O)CCNS(=O)(=O)c2cccc3nonc23)cc1,inconclusive: 12.6 µM [decreasing],
CCOC(=O)c1ccc2ncc(C(=O)OCC)c(NCc3ccco3)c2c1,inactive,
Cc1ccc(C(=O)Nc2ccc(S(=O)(=O)O)c3cc(S(=O)(=O)O)cc(S(=O)(=O)O)c23)cc1NC(=O)c1cccc(NC(=O)Nc2cccc(C(=O)Nc3cc(C(=O)Nc4ccc(S(=O)(=O)O)c5cc(S(=O)(=O)O)cc(S(=O)(=O)O)c45)ccc3C)c2)c1,inconclusive: 39.8 µM [decreasing],
CCn1c2ccccc2c2cc(N)ccc21,active: 3.16 µM,
N#CC1=C2SCN(Cc3ccco3)CN2C(=O)CC1c1ccc(Cl)cc1 (stereo unspecified),inconclusive: 39.8 µM [decreasing],
Nc1nc2ccc(N3CCOCC3)cc2s1,inconclusive: 31.6 µM [decreasing],

Compound,Potency,"activity change, negative = inhibition"
O=C1C=CC(=O)c2c1ccc1c2ccc2ccccc21,active: 3.98 µM,
Cc1cccc(Nc2cc(Cl)nc(SCC(=O)O)n2)c1C,inconclusive: 39.8 µM [decreasing],
c1ccc(-c2nc3nonc3nc2-c2ccccc2)cc1,inconclusive: 25.1 µM [decreasing],
COc1ccc(C(=O)c2ccc(OC)cc2O)c(O)c1,inactive,
COCCn1c(=O)c(-c2cc(F)cc(F)c2)nc2cnc(Oc3cccc(Cl)c3)nc21,active: 12.6 µM,
c1ccc(-c2cc(N3CCCCCC3)n[nH]2)cc1,inconclusive: 25.1 µM [decreasing],
N[C@@H](Cc1c[nH]c2ccccc12)C(=O)NCC(=O)O (H-Trp-Gly-OH),inconclusive: 39.8 µM [decreasing],
C[C@@H](SCc1ccccc1)C(=O)O,,inactive: -3.2% [at 11.4 µM]
O=C1c2ccccc2-c2nc3ncnn3c(-c3ccccc3Cl)c21,active: 12.6 µM,
COc1ccccc1N1CCN(c2ccc(-c3ccccc3)nn2)CC1,inconclusive: 31.6 µM [decreasing],
COc1cccc(-c2cn3nc(C)c(C)nc3n2)c1,active: 10 µM,
Cc1ccc(NC2c3ncccc3C(=O)N2c2ccccc2C)cc1C (stereo unspecified),inconclusive: 39.8 µM [decreasing],
COc1ccc(N(CC(=O)Nc2cc(C)on2)S(=O)(=O)c2cc(C)ccc2C)cc1,inactive,
Nc1cccc(-c2nc3ccccc3[nH]2)c1,inactive,
O=C(NCCc1ccc(Cl)cc1)C1CCN(S(=O)(=O)c2cccc3nonc23)CC1,inconclusive: 3.16 µM [decreasing],
COc1ccc(C2CC(=O)C3=C(C2)NC(C)=C(C#N)C3c2ccc(N(C)C)cc2)cc1 (stereo unspecified),inconclusive: 39.8 µM [decreasing],
COc1ccccc1CCn1c(=O)c(-c2ccccc2)nc2cncnc21,inconclusive: 25.1 µM [decreasing],
Cc1ccc(Sc2oc(/C=N/n3cnnc3)cc2Br)cc1,inconclusive: 3.16 µM [decreasing],
